Our source for the binding signal (normalized occupancy) values is article PMC4242493.

The other results are listed elsewhere or left out. The list includes weakly bound sequences.

This assay deals with MaxL homodimer (UniProt P61244). Kind of assay: universal protein-binding microarray (PBM). As to conditions: PBS-based mixture, 10 nM His-tagged protein dimer, 2% milk, 200 ng/uL BSA, 50 ng/uL salmon testes DNA, 0.02% TX-100; detection with Alexa 488 anti-His …; high values mean tight binding; most listed sequences are background and not binding sites; double strand, one strand shown.
Sequence of UniProt P61244 (P61244 whole entry): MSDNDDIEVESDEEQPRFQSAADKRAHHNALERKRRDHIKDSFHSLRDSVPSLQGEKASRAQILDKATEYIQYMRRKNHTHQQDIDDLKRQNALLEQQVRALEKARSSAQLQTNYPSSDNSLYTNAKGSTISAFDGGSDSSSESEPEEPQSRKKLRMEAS
For CTCGTTCA, the binding signal (normalized occupancy) worked out at 0.0752.

Take AATGCAGA: the binding signal (normalized occupancy) came out at 0.0752.

In the case of CTAAGTTC, the binding signal (normalized occupancy) amounted to 0.0701.

As for GGCCATAA, the binding signal (normalized occupancy) is 0.0826.

CTACCATA: the binding signal (normalized occupancy) was found to be 0.084.

As for TCGCCAGA, the binding signal (normalized occupancy) is 0.0685.

On to AAGCGGGG, for which the binding signal (normalized occupancy) is 0.0708.

GGAATTAC: the binding signal (normalized occupancy) is 0.0744.

Turning to GAGAAGCA, the binding signal (normalized occupancy) was 0.0753.

CGAAGTCA: the binding signal (normalized occupancy) is 0.0731.

With GTGGTTCA, the binding signal (normalized occupancy) came to 0.0838.

As to CGCCAGCC, the binding signal (normalized occupancy) turned out to be 0.0716.

Take CGTCGCCC: the binding signal (normalized occupancy) is 0.0699.

As to GACACTAA, the binding signal (normalized occupancy) came out at 0.0759.

Consider GGCACGAC, for which the binding signal (normalized occupancy) was determined as 0.0781.

With ACGTAACA, the binding signal (normalized occupancy) amounted to 0.0838.

As for CCGGACGG, the binding signal (normalized occupancy) stood at 0.0638.

As to AGGTAGGC, the binding signal (normalized occupancy) was 0.0738.

Consider CATTTTTC, for which the binding signal (normalized occupancy) stood at 0.0786.

Regarding CTATTTAA, the binding signal (normalized occupancy) came out at 0.0752.

Turning to CTGATGCA, the binding signal (normalized occupancy) stood at 0.0796.

On to CATGGGCG, for which the binding signal (normalized occupancy) worked out at 0.0822.

Consider ACATCCGC, for which the binding signal (normalized occupancy) is 0.0795.

On to CAACGATC, for which the binding signal (normalized occupancy) was found to be 0.0729.

Take AGCAGACC: the binding signal (normalized occupancy) is 0.0712.

In the case of ACACTCCA, the binding signal (normalized occupancy) turned out to be 0.0787.

As to CCCATACA, the binding signal (normalized occupancy) came out at 0.0836.

For the sequence CGTGAAAA, the binding signal (normalized occupancy) worked out at 0.0792.

For AGTCTTAC, the binding signal (normalized occupancy) was determined as 0.0768.

For the sequence ACATTTTC, the binding signal (normalized occupancy) was found to be 0.0796.

Take CACTTCCC: the binding signal (normalized occupancy) is 0.0778.

With CGGGCCGA, the binding signal (normalized occupancy) came to 0.067.

As to CAACGGAC, the binding signal (normalized occupancy) stood at 0.0686.

As for CTAGACCC, the binding signal (normalized occupancy) was 0.0767.

For the sequence CCTCTCGA, the binding signal (normalized occupancy) turned out to be 0.072.

In the case of ATATTTCA, the binding signal (normalized occupancy) was found to be 0.0816.

Regarding AGCGAAAC, the binding signal (normalized occupancy) turned out to be 0.0671.

For TACCACGA, the binding signal (normalized occupancy) was determined as 0.0924.

Take GATCTGAC: the binding signal (normalized occupancy) turned out to be 0.0768.

Consider CTTCCAAG, for which the binding signal (normalized occupancy) was found to be 0.0703.

On to CACCAGCC, for which the binding signal (normalized occupancy) was found to be 0.0747.

Take CCGAGACA: the binding signal (normalized occupancy) came to 0.0692.

Turning to GCGGGACC, the binding signal (normalized occupancy) is 0.0689.

As to CCACGTTA, the binding signal (normalized occupancy) is 0.105.

As to GAGTCTAC, the binding signal (normalized occupancy) was determined as 0.0665.

Consider GTGGGAGA, for which the binding signal (normalized occupancy) amounted to 0.0773.

Regarding AATAGAGC, the binding signal (normalized occupancy) was 0.0803.

As for ACGCGGTC, the binding signal (normalized occupancy) amounted to 0.0818.

On to CCAAAGTC, for which the binding signal (normalized occupancy) was found to be 0.0703.

CACGCTGC: the binding signal (normalized occupancy) came to 0.131.

AAGCTCAC: the binding signal (normalized occupancy) came out at 0.0688.

Consider TCGTTGCA, for which the binding signal (normalized occupancy) came to 0.0775.

On to CGCGTGCC, for which the binding signal (normalized occupancy) came to 0.118.

As to TGACGTAA, the binding signal (normalized occupancy) was found to be 0.0817.

Take ACTTTCAC: the binding signal (normalized occupancy) stood at 0.0729.

As for GGTTGCAA, the binding signal (normalized occupancy) amounted to 0.0715.

Consider GCGCAACA, for which the binding signal (normalized occupancy) was determined as 0.0706.

Consider ACACTAAC, for which the binding signal (normalized occupancy) stood at 0.0775.

GGGAACCA: the binding signal (normalized occupancy) worked out at 0.0799.

Take AATTCTTC: the binding signal (normalized occupancy) was found to be 0.0696.

Consider CTCGGCCA, for which the binding signal (normalized occupancy) stood at 0.0708.

With CCGACGCC, the binding signal (normalized occupancy) is 0.075.

For TACTCTCA, the binding signal (normalized occupancy) came out at 0.0739.

Take CGCACACA: the binding signal (normalized occupancy) came out at 0.0821.

Consider GTAACCCA, for which the binding signal (normalized occupancy) turned out to be 0.0809.

Consider GAATTACA, for which the binding signal (normalized occupancy) stood at 0.0731.

On to ATGGGATC, for which the binding signal (normalized occupancy) was 0.0817.

With ATGCTCAC, the binding signal (normalized occupancy) is 0.0841.

With GGACTGAA, the binding signal (normalized occupancy) turned out to be 0.0704.

With AGGACACT, the binding signal (normalized occupancy) worked out at 0.0776.

As to ACCGTGGC, the binding signal (normalized occupancy) came to 0.0752.

As to CAATGCTC, the binding signal (normalized occupancy) was 0.0774.

Regarding ACAGTGTC, the binding signal (normalized occupancy) turned out to be 0.0743.

Regarding AGACCCTC, the binding signal (normalized occupancy) came to 0.0752.

On to AGAGATAC, for which the binding signal (normalized occupancy) is 0.073.

Turning to CTGTTTAA, the binding signal (normalized occupancy) came to 0.0701.

Regarding CACCCATA, the binding signal (normalized occupancy) was determined as 0.0892.

For the sequence CTGATTTC, the binding signal (normalized occupancy) was 0.073.

On to CCAAGAAC, for which the binding signal (normalized occupancy) was 0.071.

Regarding AAGGCTAA, the binding signal (normalized occupancy) is 0.0716.

Regarding TTGGTAAA, the binding signal (normalized occupancy) was determined as 0.0726.

GATTAAAC: the binding signal (normalized occupancy) is 0.0753.

For the sequence CACTTTCC, the binding signal (normalized occupancy) was found to be 0.0749.

For the sequence GATCCGCC, the binding signal (normalized occupancy) came to 0.0714.

As to ACATCCCC, the binding signal (normalized occupancy) was found to be 0.0859.

On to CTGGAGCC, for which the binding signal (normalized occupancy) was found to be 0.0725.

ATCACACA: the binding signal (normalized occupancy) turned out to be 0.0852.

On to ACAAACCT, for which the binding signal (normalized occupancy) is 0.0779.

Take CTATAGTA: the binding signal (normalized occupancy) worked out at 0.0737.

In the case of AAGTGCCG, the binding signal (normalized occupancy) stood at 0.0706.

With GACTAAGA, the binding signal (normalized occupancy) was 0.0651.

Turning to CGTATGTA, the binding signal (normalized occupancy) worked out at 0.0885.

On to GCTGACAC, for which the binding signal (normalized occupancy) was determined as 0.0763.

In the case of AGGAAGTG, the binding signal (normalized occupancy) is 0.0694.

Turning to CTTGCACA, the binding signal (normalized occupancy) was found to be 0.0801.

Turning to CCCGTGGA, the binding signal (normalized occupancy) was determined as 0.0823.

In the case of CCGAAGTA, the binding signal (normalized occupancy) was found to be 0.0696.

With AAGCGTGA, the binding signal (normalized occupancy) was 0.0961.

Consider CACTAATC, for which the binding signal (normalized occupancy) was 0.0751.

Turning to GCAGTTAA, the binding signal (normalized occupancy) came out at 0.07.

In the case of AAGCACGA, the binding signal (normalized occupancy) turned out to be 0.0867.

As to ACCATGGA, the binding signal (normalized occupancy) turned out to be 0.0861.

For TAAACATA, the binding signal (normalized occupancy) amounted to 0.083.

Consider ACCTTCGT, for which the binding signal (normalized occupancy) came to 0.072.

As for AGCCTCAA, the binding signal (normalized occupancy) was found to be 0.0701.

In the case of AGTTCTAA, the binding signal (normalized occupancy) was 0.0746.

Turning to CGTGATGC, the binding signal (normalized occupancy) was determined as 0.0891.

For AACTGATA, the binding signal (normalized occupancy) is 0.0775.

On to GTATATGA, for which the binding signal (normalized occupancy) came out at 0.0886.

Regarding AGATCAAG, the binding signal (normalized occupancy) was 0.0766.

Consider AAGATCTA, for which the binding signal (normalized occupancy) was found to be 0.0775.

CCTTAACA: the binding signal (normalized occupancy) turned out to be 0.0794.

Turning to CCCTACCG, the binding signal (normalized occupancy) came to 0.076.

In the case of CCTGGAAC, the binding signal (normalized occupancy) is 0.0734.

TAACTGAA: the binding signal (normalized occupancy) was found to be 0.073.

Consider CTCCAGAC, for which the binding signal (normalized occupancy) stood at 0.069.

In the case of AATGCGTA, the binding signal (normalized occupancy) worked out at 0.0846.

As to ACATCGCG, the binding signal (normalized occupancy) worked out at 0.0757.

In the case of AATAGTGC, the binding signal (normalized occupancy) worked out at 0.0733.

For the sequence ACCCCAAG, the binding signal (normalized occupancy) was 0.0753.

Consider GCTTAGAC, for which the binding signal (normalized occupancy) came out at 0.0762.

For the sequence GAGACTAC, the binding signal (normalized occupancy) stood at 0.0744.

GATCGTCC: the binding signal (normalized occupancy) turned out to be 0.0702.

Regarding GTTCGATA, the binding signal (normalized occupancy) worked out at 0.0744.

Turning to CGAACATC, the binding signal (normalized occupancy) amounted to 0.0771.

As for ACTTAAAT, the binding signal (normalized occupancy) is 0.0746.

Take GATAGGAC: the binding signal (normalized occupancy) worked out at 0.0775.

Take ATTCAAAA: the binding signal (normalized occupancy) was found to be 0.0721.

Take TGCTTCAA: the binding signal (normalized occupancy) came to 0.0792.

For the sequence AGCGACCT, the binding signal (normalized occupancy) was 0.0668.

CGATGCCC: the binding signal (normalized occupancy) was 0.0786.

As for GAGTGCAC, the binding signal (normalized occupancy) is 0.082.

For AGCCATTC, the binding signal (normalized occupancy) is 0.0723.

On to AACATCTT, for which the binding signal (normalized occupancy) amounted to 0.0763.

For AAGCCGAC, the binding signal (normalized occupancy) worked out at 0.0686.

CTCGCATC: the binding signal (normalized occupancy) is 0.0773.

For CTCATGAA, the binding signal (normalized occupancy) is 0.0856.

Regarding ACTCATAT, the binding signal (normalized occupancy) came out at 0.0838.

For ATTCTGGA, the binding signal (normalized occupancy) is 0.0737.

As to AAAAACTA, the binding signal (normalized occupancy) came out at 0.0735.

With ATTGGCAG, the binding signal (normalized occupancy) is 0.0726.

Consider CGCAGCGA, for which the binding signal (normalized occupancy) was determined as 0.0669.

As to AGAGCGTA, the binding signal (normalized occupancy) came to 0.0758.

As for GAGCGTGC, the binding signal (normalized occupancy) came out at 0.0887.

Consider GTGTCCTA, for which the binding signal (normalized occupancy) stood at 0.074.

In the case of CGTAATTC, the binding signal (normalized occupancy) worked out at 0.0757.

ATGGGCCG: the binding signal (normalized occupancy) came out at 0.0763.

In the case of GAGGTACC, the binding signal (normalized occupancy) turned out to be 0.0689.

Regarding GCAGCAGC, the binding signal (normalized occupancy) worked out at 0.0725.

Take CGAGTAGA: the binding signal (normalized occupancy) is 0.0741.

In the case of AGCGGCAC, the binding signal (normalized occupancy) came to 0.0754.

As for ATATCGAG, the binding signal (normalized occupancy) was 0.0761.

On to ATCCACAT, for which the binding signal (normalized occupancy) amounted to 0.0977.

For ACCTAGTA, the binding signal (normalized occupancy) was 0.0711.

In the case of CCAACGGA, the binding signal (normalized occupancy) was determined as 0.0721.

Regarding CCAGTGCG, the binding signal (normalized occupancy) stood at 0.0677.

In the case of AAGGGTAC, the binding signal (normalized occupancy) was 0.0733.

Take GGGGCACA: the binding signal (normalized occupancy) stood at 0.079.

On to GCCTCACC, for which the binding signal (normalized occupancy) was 0.0737.

Turning to AATGCTGG, the binding signal (normalized occupancy) turned out to be 0.0789.

Take GTCGTTCA: the binding signal (normalized occupancy) worked out at 0.073.

For ATAGCCCC, the binding signal (normalized occupancy) is 0.0781.

On to GCTGGTAA, for which the binding signal (normalized occupancy) worked out at 0.0721.

With AGCATCGA, the binding signal (normalized occupancy) turned out to be 0.073.

As for AGCTCGTG, the binding signal (normalized occupancy) worked out at 0.0836.

On to AATGTAGT, for which the binding signal (normalized occupancy) was 0.0767.

Turning to AAACATGC, the binding signal (normalized occupancy) was found to be 0.0937.

As for CCTTAACC, the binding signal (normalized occupancy) was 0.0754.

As for AGTATACC, the binding signal (normalized occupancy) was found to be 0.0818.

For TGCAGTAA, the binding signal (normalized occupancy) was 0.078.

In the case of ACAATGGT, the binding signal (normalized occupancy) amounted to 0.0799.

Turning to AATCGTGT, the binding signal (normalized occupancy) is 0.0839.
